The whole screen tested about 73,000 compounds, of which about 1,800 (2.5%) were called active. This list was built around the results that the source calls inconclusive (neither active nor inactive); the mix of calls is not that of the screen. The call rests on the fitted dose curve; in most records, active means well fitted activation curve with a large enough effect; inconclusive means small, poorly fitted or top-dose-only effect; inactive means no such curve, though single readings can be large or run the other way. A potency beside an inconclusive call is a rough fit, not a confirmed value.
experiment: qHTS Assay for Agonists of the Thyroid Stimulating Hormone Receptor: Activators of Intracellular cAMP Concentrations in Parental HEK 293; conditions: parental HEK293 CNG cAMP sensor, membrane potential fluorescence; activation: at 57.1 µM (top of the series) unless noted; further: nearly all actives have a fitted effect of over 55% in size; on activation: % of control where 0% means no effect
Summary of the method: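 Parental HEK 293 cells stably expressing a cAMP-gated CNG channel were loaded with membrane potential dye containing 100 uM RO 20-1724 for 60 min. Compound added for 30 min; depolarization read as fluorescence intensity at 590 nm.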
Potency means the concentration at half of the fitted maximal effect; tags describe the fitted curve by direction and shape.

Compound	Potency	activation
COC(=O)c1ccc(Oc2cc(C)nc(SC)n2)cc1	inconclusive: 3.98 µM [activator, full curve, poor fit]	
CCc1nc(SCC(=O)N2CCCc3ccccc32)c2c(=O)n(C)c(=O)n(C)c2n1	inconclusive: 6.31 µM [activator, single point]	
CCOCCCNC(=O)C(c1ccc(Cl)cc1)N1CCN(c2ccccc2)CC1 (configuration not stated)	inconclusive: 0.631 µM [activator, full curve]	
COc1ccc2nc(SCc3nc(N)nc(Nc4ccccc4)n3)[nH]c2c1		inactive: -3.15%
CC(C=O)Cc1ccc(C(C)(C)C)cc1 (configuration not stated)	inconclusive: 39.8 µM [activator, single point]	
NCCC[C@@H](CC(=O)N[C@@H]1CCCC[C@H]1C(=O)N[C@H](CC(=O)N[C@@H](CCC(=O)O)CC(=O)O)Cc1c[nH]c2ccccc12)NC(=O)C[C@H](Cc1c[nH]c2ccccc12)NC(=O)[C@@H]1CCCC[C@H]1N		inactive: 7.01%
C=CCc1cccc(C2C(C)CCC3C(=O)N4C(CCC(C)C4c4cccc(CC=C)c4)C(=O)N32)c1 (configuration not stated)		inactive: 24.2% [at 11.4 µM]
CS(=O)(=O)N(CC(=O)NCCSC1CCCCC1)c1ccc2c(c1)OCO2	inconclusive: 31.6 µM [activator, single point]	
CCOC(=O)N1CCN(C(=O)CN(c2ccc(Oc3ccccc3)cc2)S(C)(=O)=O)CC1	inconclusive: 20 µM [activator, partial curve, poor fit]	
N#Cc1c(NC(=O)CSC2=NCCS2)sc2c1CCCC2	inconclusive: 1.26 µM [activator, full curve]	
c1ccc2c(c1)CCN(c1nc3cc4c(cc3s1)OCCO4)C2		inactive: -10.8%
CC(C)C1=C[C@@]23CC[C@@H]4[C@](C)(CCC[C@@]4(C)C(=O)O)[C@@H]2C[C@@H]1[C@@H](C(=O)O)[C@@H]3C(=O)O		inactive: -4.59% [at 11.4 µM]
COC(=O)[C@@]1(Cc2ccccc2)[C@H]2c3cc(C(=O)N4CCCC4)n(Cc4cccc5ccccc45)c3C[C@H]2CN1C(=O)c1ccccc1	active: 1.58 µM	
COC(=O)c1ccc(OC(=O)C2CC(=O)N(c3ccc(C)cc3C)C2)cc1 (configuration not stated)		inactive: 0.229%
COc1ccc(C)cc1NC(=O)NC1CCN(Cc2ccccc2)CC1	inconclusive: 6.31 µM [activator, single point]	
O=C(CN1C(=O)c2cccc3cccc1c23)Nc1ccc(S(=O)(=O)N2CCOCC2)cc1		inactive: 3.11%
COc1cc2c(cc1NC(=O)c1ccco1)CCCC2		inconclusive: 38.5% [activator] [at 11.4 µM]

Reference: PubChem BioAssay AID938 (National Center for Advancing Translational Sciences (NCATS), 2007)
